Assay results published in the supplement of paper PMC10126150.
Values marked as one replicate rest on one cluster of the flow cell; about a third of the high ones do not repeat.

System: ATP
Test: switch fluorescence ratio, 500 uM ATP over buffer (Cy3 cluster intensity, sum of 5 cycles each) (fold (ratio)); higher = stronger signal-on switching upon ATP binding; sequences stand for … in TCGTCGGCAGCGTCAGATGTGTATAAGAGACAGTTTTTTTTTTTTTTTTTTTTTTTTT…TC
Details: aptamer strand: ATP DNA aptamer (quencher-CACCTGGGGGAGTATTGCGGAGGAAGG + anchor), 100 nM annealed; ATP concentration: 500 uM; one replicate
Procedure, shortened: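 Between each of five buffer/ATP cycles, the flow-cell was stripped with NaOH and re-annealed. Each cycle imaged Cy3-labelled switching-strand clusters, annealed to 100 nM quencher-labelled ATP aptamer on a modified Illumina MiSeq flow-cell, first in selection buffer and then after 15 min with 500 uM ATP at 22 °C. The fluorescence ratio is summed target-cycle over summed buffer-cycle Cy3 intensity per cluster, averaged per switch-domain sequence, with clusters outside 100-1000 RFU excluded.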
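Also: ATP exposure 15 min at 22 °C before imaging.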

| Sequence | switch fluorescence ratio |
| --- | --- |
| AATTCGATGG | 1.02 |
| TTCGCAGACC | 1.1 |
| TTGTTTTAAC | 0.974 |
| GCAGAATGAT | 1 |
| GCAAAGAGTG | 0.964 |
| GACTTGGGG | 0.996 |
| GGATTTGAGC | 0.999 |
| GATCCCCTCC | 1.17 |
| GCAGGGGATC | 1.02 |
| ACCTGTTACG | 1.16 |
| CTCGCAGCAG | 1.8 |
| AGCGAGCGCT | 0.976 |
| GGGGGTCCA | 0.968 |
| TTAATCAACG | 1.04 |
| TGCTCTTACT | 1.06 |
| CTTAGCGGGT | 1.02 |
| CATCTCTAAG | 1.02 |
| ACCAAGGTCA | 0.96 |
| ACGATCTAGG | 0.998 |
| AACACGATTG | 1.06 |
| ATTTGCGGGA | 1 |
| ATGATTAGGG | 0.933 |
| CAAATGAATT | 1.03 |

| Sequence | switch fluorescence ratio |
| --- | --- |
| TCGGCTTGAC | 1.01 |
| TTGGTCTTAA | 1 |
| TTGTGGATC | 0.98 |
| CGAGTCCAGT | 1.13 |
| CTAGTCTTAC | 1.12 |
| TTATACCTCC | 1.33 |
| CGCTTGTCGA | 1.06 |
| CACTTGTATC | 1.02 |
| GGCGGTGGGA | 0.987 |
| GTACACTCTT | 1.02 |
| TGAGGGTAGA | 1.03 |
| ACACTGCG | 1 |
| GGGCTCGTTT | 0.974 |
| TAATAGAGTC | 0.997 |
| CTATGAGC | 0.95 |
| AACGTTGTCA | 1.04 |
| TTTTCATGCA | 1.02 |
| TGCAGATGAA | 0.99 |
| AGATTGAGCA | 1.01 |
| GCAAGAGGCG | 1.01 |
| GGGGCGCATG | 1.09 |
| TCCGACATGT | 1.24 |
| CAAGTAGCTC | 1 |

| Sequence | switch fluorescence ratio |
| --- | --- |
| TCAGATACTA | 1.05 |
| TGGTATAGGA | 0.944 |
| GTCACCGACC | 1.11 |
| ACATTTGCTA | 1.01 |
| TTAGTGGTGT | 0.97 |
| TTAAAAAGGC | 1.13 |
| TAATTGGCGT | 0.963 |
| AGTCAAATAG | 0.976 |
| TTAAACCGTA | 1.04 |
| CACACCACGG | 1.57 |
| ATGGTGGACG | 1.04 |
| CGGCGCGCCT | 0.996 |
| ACGTATCGCG | 0.983 |
| AATTTGGTC | 0.923 |
| TGGTGGTTC | 0.97 |
| TAGTCGACCC | 1.04 |
| AGGTCCTGGT | 0.981 |
| TTTGGCTACT | 0.977 |
| GTGCTGGCTT | 1.05 |
| CTCCTGATCG | 1.04 |
| GACCGTAGGG | 0.979 |
| GGCATACTGG | 1 |
| CGGCTTTTGA | 0.947 |

| Sequence | switch fluorescence ratio |
| --- | --- |
| GGAGCTGACT | 1.06 |
| CCACCCGGAT | 1.13 |
| GCACTCCCGC | 1.47 |
| CTGAAAACA | 0.946 |
| ATCGTACGAC | 1.03 |
| AGTGACCGCT | 1.05 |
| TGCGCGCAGG | 1.03 |
| ATCGCATGCA | 1.03 |
| TGCGCGGGTA | 1.13 |
| GGTATACCGG | 1 |
| GGACTAGGGG | 1.01 |
| TGGTATAAGA | 1.08 |
| GTGTGTTGTG | 0.961 |
| CGATGAGCGG | 0.973 |
| GTTCAGATGG | 0.986 |
| TCGGTGTCCC | 0.987 |
| CGAGTTCACG | 1.02 |
| ACGTACTAGT | 1.51 |
| GCGCTTTGGG | 1.03 |
| CGAGCCAGGT | 1.43 |
| ACCATTGGGT | 1.06 |
| TCTACCTCG | 1.05 |
| TTCTTATAGT | 0.941 |

| Sequence | switch fluorescence ratio |
| --- | --- |
| TATTCGCATT | 1.37 |
| AACAGGTAAA | 1.03 |
| ATGTAAAGGG | 1.03 |
| TCTATTGTAT | 0.979 |
| CAGCCCGGCG | 1.04 |
| TGGTAAGCTT | 0.993 |
| CCAAGTTAAA | 1.01 |
| TACTATTGGC | 0.907 |
| AACTCGAAAA | 1.12 |
| ACGGAGTAGT | 1.02 |
| TGCTTGCCTG | 1.01 |
| GAGCCACCGA | 1.04 |
| GCTTACGTTC | 1.02 |
| ATTAGGGG | 0.965 |
| TTCGCTGCAC | 3.31 |
| GGGGCCGCTG | 0.981 |
| TGGTAAGTAG | 1.04 |
| CGTGGTGTCA | 1.03 |
| TTTTAACCTC | 0.921 |
| GTTGGGATGC | 1.02 |
| TTATTCTGCC | 1.04 |
| AGTGGCATGG | 1.04 |
| GGGCCTTACT | 1.23 |

| Sequence | switch fluorescence ratio |
| --- | --- |
| GACACGATGG | 1.04 |
| TAAATCGTCA | 0.994 |
| TGCTTGCGAA | 1.03 |
| GACAACCACG | 1.19 |
| GTAAAATTTG | 0.993 |
| TTCCAAGGGG | 1.02 |
| TAATCGATTG | 0.977 |
| TAAGCGAATA | 1.09 |
| TCAATCGCGC | 1.11 |
| AATGTCCAGT | 1.02 |
| ACAAAAGCTC | 1.01 |
| GCGGTTTATA | 0.988 |
| ATTGATCTGA | 1.01 |
| GGGGTACGTC | 1 |
| GATATAGTTA | 0.99 |
| AGTGTTGCTC | 0.994 |
| AAAAGTAACG | 1.02 |
| ACATGGAGTT | 0.992 |
| CGAGATATAT | 0.982 |
| TTCCTGAGGA | 1.03 |
| TGTGAAAAAA | 1.03 |
| AAAGAAATTT | 0.985 |
| CAGAGCGAAT | 1.18 |

| Sequence | switch fluorescence ratio |
| --- | --- |
| GGCACTATAC | 2.11 |
| AATATTTGAT | 0.962 |
| AGCCCAACAC | 1.08 |
| TTTGTTGGT | 0.989 |
| AGGAATCAGC | 1 |
| CTAGTTGGG | 1.01 |
| TGTACGTGCG | 1.04 |
| ACATGCAGT | 0.992 |
| CAACCGGTGT | 1.16 |
| CGCGGCTGAC | 1.62 |
| CATATTGTCA | 1 |
| AAAGATAGGT | 0.971 |
| TATCGTATAG | 0.963 |
| CGCTAGAAGC | 1.01 |
| TGCGGTCCCT | 1.14 |
| ACTTTAGACA | 1.03 |
| GTGCAGTACG | 1.52 |
| CGGTAGGTAA | 0.991 |
| TTGCCGTCCG | 0.979 |
